The record followed here is patent US20250002588A1 (DIAGONAL THERAPEUTICS, published 2025).

This test addresses ALK-1/BMPR-2 receptor pair of the PathHunter U2Os dimerization cells (DiscoverX 93-0962C3) (UniProt P37023 22-503; Q13873 27-1038). The test can be described thus: cell-based or functional assay.
Sequence of UniProt P37023 (P37023 22-503, chain 1 of 2): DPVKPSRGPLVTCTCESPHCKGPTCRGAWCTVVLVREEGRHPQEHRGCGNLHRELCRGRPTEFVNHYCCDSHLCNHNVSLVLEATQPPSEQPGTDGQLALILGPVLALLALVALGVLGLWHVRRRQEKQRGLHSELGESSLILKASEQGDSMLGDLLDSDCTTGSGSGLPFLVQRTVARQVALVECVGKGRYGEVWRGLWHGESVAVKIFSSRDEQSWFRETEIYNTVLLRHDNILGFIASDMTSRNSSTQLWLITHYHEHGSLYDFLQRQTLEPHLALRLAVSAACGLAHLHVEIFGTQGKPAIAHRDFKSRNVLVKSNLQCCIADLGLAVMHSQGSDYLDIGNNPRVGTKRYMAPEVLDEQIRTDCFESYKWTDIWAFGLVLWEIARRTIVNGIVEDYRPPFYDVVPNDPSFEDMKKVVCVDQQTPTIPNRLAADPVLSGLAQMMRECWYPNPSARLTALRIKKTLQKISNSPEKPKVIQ
Sequence of UniProt P37023 (Q13873 27-1038, chain 2 of 2, further chain): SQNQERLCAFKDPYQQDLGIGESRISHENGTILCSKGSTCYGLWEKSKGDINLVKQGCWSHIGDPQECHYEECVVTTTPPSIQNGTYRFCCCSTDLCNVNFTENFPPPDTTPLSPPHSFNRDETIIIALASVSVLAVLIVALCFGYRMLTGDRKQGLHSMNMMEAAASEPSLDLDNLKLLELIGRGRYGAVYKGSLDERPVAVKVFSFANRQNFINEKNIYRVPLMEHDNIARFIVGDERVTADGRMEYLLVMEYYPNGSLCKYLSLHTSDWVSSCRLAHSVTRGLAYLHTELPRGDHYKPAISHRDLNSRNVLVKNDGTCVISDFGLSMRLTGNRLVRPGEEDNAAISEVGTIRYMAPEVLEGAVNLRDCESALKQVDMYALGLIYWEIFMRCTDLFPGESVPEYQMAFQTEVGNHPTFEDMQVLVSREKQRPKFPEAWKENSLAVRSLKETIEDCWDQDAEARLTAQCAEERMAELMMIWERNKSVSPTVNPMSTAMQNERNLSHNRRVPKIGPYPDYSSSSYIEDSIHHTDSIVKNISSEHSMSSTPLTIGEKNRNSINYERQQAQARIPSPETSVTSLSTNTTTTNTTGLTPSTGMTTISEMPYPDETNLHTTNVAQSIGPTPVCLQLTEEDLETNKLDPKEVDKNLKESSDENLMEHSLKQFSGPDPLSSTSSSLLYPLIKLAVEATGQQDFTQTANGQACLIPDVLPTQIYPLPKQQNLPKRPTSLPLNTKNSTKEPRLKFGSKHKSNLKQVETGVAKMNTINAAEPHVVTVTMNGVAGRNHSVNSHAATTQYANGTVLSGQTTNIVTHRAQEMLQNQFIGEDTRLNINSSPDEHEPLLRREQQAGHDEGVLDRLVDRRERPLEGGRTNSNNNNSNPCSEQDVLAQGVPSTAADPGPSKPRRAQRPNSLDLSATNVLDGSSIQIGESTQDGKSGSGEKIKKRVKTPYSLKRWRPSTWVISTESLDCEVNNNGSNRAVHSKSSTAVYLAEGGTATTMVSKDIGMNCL

B1: DGL284 (bispecific antibody)
chain: [about 120 residues omitted here]EGKSSGSGSESKASQVQLQESGPGLVKPSQTLSLTCTVSGGSISSDDYYWSWIRQTPGKGLEWIGYIYYSGITYYNPSLKSRVTISVDTSKNQFSLKLSSVTAADTAVYYCAREGCNDGVCYNGVFDYWGQGTLVTVSSSGGSGGGGSSGGGGSGGGGSSGGGGDGGGGSGGTQSALTQPASVSGSPGQSITISCTGTSSDVGGYKSVSWYQQHPGKAPKLMIYDVSNRPSGVSDRFSGSKSGNTASLTISGLQAEDEADYYCSSYTSSSSLWVFGGGTKLTVLGEGKSSGSGSESKASQVQLVQSGAEVKKPGSSVKVSCKASGGTFSSYAISWVRQAPGQGLEWMGRIIPILGIANYAQKFQGRVTMTEDTSTDTAYMELSSLRSEDTAVYYCATDLWGVGADWGQGTLVTVSSGSGGGGDGGGGSG[human IgG1 Fc omitted here]
The EC50 is the concentration needed to bring the measured effect to its halfway point. Low values mean an effect from little substance, high ones a need for much substance. On to B1, for which the “% Emax BMP9” value came to 49%, a half-maximal response (EC50) required 1 nM and the “EMAX (RLU)” value was determined as 1.3e+06 RLU.
